Where “and” joins values, the source holds several entries; their conditions need not be identical. Equal values may be shown once. Inconclusive results, whose numbers are uncertain, are shown with a selection of clear calls. For some of these results: A potency beside an inconclusive call is a rough fit, not a confirmed value. Some compounds were tested as several samples or in several runs, with calls that do not always agree. Calls of active or inactive are those of the source. The call rests on the fitted dose curve; in most records, active means well fitted curve in the direction sought with a large enough effect; inconclusive means small, poorly fitted or top-dose-only effect, or another doubt; inactive means no such curve, though single readings can be large; an effect the other way counts as inactive or inconclusive.
Experiments:
HEK293 = assay: Cytotoxic Profiling of Annotated Libraries Using Quantitative High-Throughput Screening (AID 1296008); conditions: Five cell lines viability, CellTiter-Glo ATP luminescence, 48-72 h; max response: hits give low values; further: nearly all actives have a fitted effect of over 60% in size
How it was run: (§1)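 Compounds were pin-transferred onto cells and incubated 48 or 72 hr at 37 degree Celsius, 95% humidity. CellTiter-Glo was added, plates sat 10 min at room temperature, then ATP-coupled luminescence was imaged as the viability read-out.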

KB-3-1 = assay: as above; conditions: Five cell lines viability, CellTiter-Glo ATP luminescence, 48-72 h; max response: hits give low values
How it was run: as §1

MCC-13 = assay: qHTS assay to identify novel small-molecules to repurpose for Merkel cell carcinoma treatment (AID 1296009); conditions: MCC and control cell lines, CellTiter-Glo viability, 72 h; series mostly up to 46 µM; further: nearly all actives have a fitted effect of over 60% in size; on activity change, negative = cytotoxicity: on the % scale 0 is the no-effect control and ±100 the full control effect
How it was run: (§2)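 Viability readout: ATP luminescence (CellTiter-Glo) after 72 hr drug exposure at 37 degree celsius. Dose-response format was 8 points for NPC and 11 points for MIPE; data normalized to in-plate controls.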

WaGa = assay: as above; conditions: MCC and control cell lines, CellTiter-Glo viability, 72 h; series mostly up to 46 µM
How it was run: as §2

astro = assay: Drug repurposing screens with cells derived from glioblastoma tumor samples (AID 1345199); conditions: viability, ATP luminescence, 48 h; activity, negative = cell killing: at 45.9 µM (top of the series); further: nearly all actives have a fitted effect of over 40% in size
How it was run: (§3)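 Primary testing used CD133+ neurospheres from four GBM patients, seven concentrations, 48 h exposure and ATP-based viability; confirmation added three slower-growing patient lines.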

CASKI = assay: Primary qHTS to identify gynecologic anti-cancer compounds using libraries of approved drugs and bioactive compounds (AID 1345084); conditions: Gynecologic cancer cell panel viability, ATPlite luminescence, 48 h; activity change, negative = cytotoxicity: at 57.5 µM (top of the series); further: nearly all actives have a fitted effect of over 55% in size; on activity change, negative = cytotoxicity: on the % scale 0 is the no-effect control and ±100 the full control effect
How it was run: (§4)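 Measured: luminescence after ATPlite addition (15 min, RT). Exposure: 48 h, 37 C, 5% CO2.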

HaCat = assay: Cytotoxic Profiling of Annotated Libraries Using Quantitative High-Throughput Screening (AID 1296008); conditions: Five cell lines viability, CellTiter-Glo ATP luminescence, 48-72 h; max response: hits give low values; further: nearly all actives have a fitted effect of over 60% in size
How it was run: as §1

NIH3T3 = assay: as above; conditions: Five cell lines viability, CellTiter-Glo ATP luminescence, 48-72 h; max response: hits give low values
How it was run: as §1

HeLa = assay: Primary qHTS to identify gynecologic anti-cancer compounds using libraries of approved drugs and bioactive compounds (AID 1345084); conditions: Gynecologic cancer cell panel viability, ATPlite luminescence, 48 h; series mostly up to 57.5 µM; further: nearly all actives have a fitted effect of over 55% in size
How it was run: as §4

W2 = assay: qHTS profiling for inhibitors of Plasmodium falciparum proliferation (AID 504749); further: nearly all actives have a fitted effect of over 60% in size; conditions: P. falciparum in erythrocytes, SYBR Green DNA, 72 h; series mostly up to 28.7 µM
How it was run: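 Quantitative HTS: compounds pinned into medium, infected erythrocytes added (0.3% parasitemia, 2.5% hematocrit), 72 h culture at 37 C under 5% CO2. Saponin/Triton lysis with SYBR Green I, overnight RT, then fluorescence read.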

MCC-26 = assay: qHTS assay to identify novel small-molecules to repurpose for Merkel cell carcinoma treatment (AID 1296009); conditions: MCC and control cell lines, CellTiter-Glo viability, 72 h; series mostly up to 46 µM; further: nearly all actives have a fitted effect of over 60% in size; on activity change, negative = cytotoxicity: on the % scale 0 is the no-effect control and ±100 the full control effect
How it was run: as §2

MKL-2 = assay: as above; conditions: MCC and control cell lines, CellTiter-Glo viability, 72 h; series mostly up to 46 µM
How it was run: as §2

UISO = assay: as above; conditions: MCC and control cell lines, CellTiter-Glo viability, 72 h; series mostly up to 46 µM
How it was run: as §2

[1] = qHTS assay to identify inhibitors of the type 1 interferon - major histocompatibility complex class I in skeletal muscle: Counter screen cell viability and HiBit confirmation (AID 1347412); conditions: iHSKM muscle cells + IFN-b, HiBiT or CellTiter-Glo, 24 h; further: nearly all actives have a fitted effect of over 60% in size
How it was run: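 Myoblasts (C25cl48, HLA-B HiBiT) seeded in medium without dexamethasone, IFN-b 4 ng/ml added except unstimulated columns; 1 hr later compounds pinned (12-pt 1:3, top 46 uM final). Incubated 24 hrs, lysed 10 min, luminescence measured.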

CAOV3 = assay: Primary qHTS to identify gynecologic anti-cancer compounds using libraries of approved drugs and bioactive compounds (AID 1345084); conditions: Gynecologic cancer cell panel viability, ATPlite luminescence, 48 h; series mostly up to 57.5 µM; further: nearly all actives have a fitted effect of over 55% in size
How it was run: as §4

Es-2 = assay: as above; conditions: Gynecologic cancer cell panel viability, ATPlite luminescence, 48 h; series mostly up to 57.5 µM
How it was run: as §4

MKL-1 = assay: qHTS assay to identify novel small-molecules to repurpose for Merkel cell carcinoma treatment (AID 1296009); conditions: MCC and control cell lines, CellTiter-Glo viability, 72 h; series mostly up to 46 µM; further: nearly all actives have a fitted effect of over 60% in size; on activity change, negative = cytotoxicity: on the % scale 0 is the no-effect control and ±100 the full control effect
How it was run: as §2

C33A = assay: Primary qHTS to identify gynecologic anti-cancer compounds using libraries of approved drugs and bioactive compounds (AID 1345084); conditions: Gynecologic cancer cell panel viability, ATPlite luminescence, 48 h; series mostly up to 57.5 µM; further: nearly all actives have a fitted effect of over 55% in size
How it was run: as §4

[2] = Drug repurposing screens with cells derived from glioblastoma tumor samples (AID 1345199); conditions: GBM patient neurospheres viability, ATP luminescence, 48 h; Potency: tumour line A unless noted; activity, negative = cell killing: at 46 µM (top of the series), tumour line A unless noted; further: nearly all actives have a fitted effect of over 40% in size
How it was run: as §3
Potency means the concentration at half of the fitted maximal effect; tags describe the fitted curve by direction and shape.

OCCN1CCN(CCCN2c3ccccc3C=Cc3ccccc32)CC1
inconclusive: Potency (HEK293) 29.9 µM [inhibitor, single point] | Potency (KB-3-1) 29.1 µM [inhibitor, single point] | Potency (WaGa) 33.5 µM [inhibitor, single point] | Potency (astro) 25.1 µM [inhibitor, single point] and 14.1 µM [inhibitor, partial curve, poor fit]
inactive: Potency (MCC-13) | Potency (CASKI)

CN(C)c1ccc(-c2nc3ncc(Cl)c(N4CCN(CC(=O)Nc5nccs5)CC4)c3[nH]2)cc1
active: Potency (KB-3-1) 2 µM
inconclusive: Potency (HEK293) 37.2 µM [inhibitor, single point] and 2.52 µM [inhibitor, single point] | Potency (HaCat) 16.6 µM [inhibitor, partial curve] | Potency (NIH3T3) 26.4 µM [inhibitor, partial curve] and 3.17 µM [inhibitor, single point] | Potency (HeLa) 3.98 µM [cytotoxic, single point]

CCN(CC)CCNC(=O)c1c(C)[nH]c(/C=C2\C(=O)Nc3ccc(F)cc32)c1C
active: Potency (W2) 4.26 µM | Potency (HEK293) 8.41 µM | Potency (MCC-13) 23.7 µM | Potency (MKL-2) 2.99 µM | Potency (UISO) 11.9 µM | Potency ([1]; Viability) 7.01 µM | Potency (CAOV3) 25.1 µM
inconclusive: Potency (HaCat) 15 µM [inhibitor, partial curve] | Potency (MCC-26) 26.6 µM [inhibitor, single point] | Potency (CASKI) 35.5 µM [cytotoxic, single point] | Potency (Es-2) 14.1 µM [cytotoxic, partial curve] | Potency (HeLa) 31.6 µM [cytotoxic, partial curve, poor fit]

CCOc1cc(N2CCC(O)CC2)ccc1Nc1ncc2c(n1)N(C)c1ccccc1C(=O)N2C
active: Potency (MKL-1) 3.32 µM | Potency (UISO) 11.8 µM
inconclusive: Potency (HEK293) 33.2 µM [inhibitor, single point] | Potency (KB-3-1) 37.2 µM [inhibitor, partial curve, poor fit] | Potency (MCC-13) 26.4 µM [inhibitor, single point]

CCOC(=O)[C@H]1O[C@H]1C(=O)N[C@@H](CC(C)C)C(=O)NCCC(C)C
inactive: outcome (HEK293) | max response (HaCat) -0.586% | max response (KB-3-1) 0.158% | Potency (MCC-13) | Potency (UISO)

Cc1cc([C@@H](C)Nc2ccccc2C(=O)O)c2nc(N3CCOCC3)cc(=O)n2c1
active: Potency (HEK293) 19.1 µM | Potency (NIH3T3) 12.1 µM | Potency (UISO) 34 µM
inconclusive: Potency (KB-3-1) 19.1 µM [inhibitor, full curve] | Potency (MCC-26) 30.3 µM [inhibitor, partial curve] | Potency (MKL-2) 24.1 µM [inhibitor, partial curve, poor fit] | Potency (WaGa) 5.4 µM [inhibitor, partial curve]

CC(C)c1cnn2c(NCc3ccccc3)cc(N[C@@H](CO)[C@H](O)CO)nc12
inactive: activity change, negative = inhibition ([1]; Viability, at 45.9 µM (top of the series)) 18.9%
active: Potency (HEK293) 332 nM and 1.03 µM | Potency (HaCat) 469 nM and 4.11 µM | Potency ([1]; HiBiT) 0.157 µM | Potency (C33A) 7.08 µM | Potency (CASKI) 4.47 µM | Potency (HeLa) 2.82 µM
inconclusive: Potency (MKL-1) 0.935 µM [inhibitor, full curve] | Potency (WaGa) 0.662 µM [inhibitor, full curve] | Potency (CAOV3) 10 µM [cytotoxic, partial curve, poor fit]

CC(C)(C)C(=O)OCOC(=O)[C@@H]1N2C(=O)[C@@H](NC(=O)[C@H](N)c3ccccc3)[C@H]2SC1(C)C
inactive: max response (HEK293) -3.05% | Potency (MCC-13) | Potency [2]

CC/C(=C(\c1ccccc1)c1ccc(OCCN(C)C)cc1)c1ccccc1
inconclusive: Potency (HEK293) 33.5 µM [inhibitor, single point] | Potency (NIH3T3) 29.9 µM [inhibitor, single point] | Potency (MCC-13) 23.7 µM [inhibitor, single point] | Potency (MCC-26) 18.8 µM [inhibitor, single point] | Potency (MKL-1) 26.6 µM [inhibitor, single point] | Potency ([1]; HiBiT) 80.8 µM [inhibitor, single point] | Potency ([1]; Viability) 90.6 µM [cytotoxic, single point] | Potency (CAOV3) 20 µM [cytotoxic, single point]
active: Potency (W2) 13.5 µM | Potency (UISO) 21.1 µM | Potency (astro) 25.1 µM

— PubChem BioAssay (NCATS)
